Experimental data reported in PubChem BioAssay AID493208 (National Center for Advancing Translational Sciences (NCATS), 2011).
In all, about 44,000 compounds went through this assay and about 340 (0.77%) were called active. Roughly 5% stayed inconclusive and do not appear here. Calls follow the shape of the dose curve; as a rule, active = well fitted inhibition curve with a large enough effect; inconclusive = small, poorly fitted or top-dose-only effect; inactive = flat fitted curve, though single readings scatter. The list shows a part of the results.

experiment: Acumen qHTS Assay for Inhibitors of the mTORC1 Signaling Pathway in MEF (Tsc2-/-, p53-/-) Cells: Sytravon; conditions: phospho-rpS6 immunofluorescence/PI, 24 h; series mostly up to 38.3 µM; activity change, negative = inhibition: at the top concentration;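 also: plate controls were DMSO for no effect and rapamycin for full effect; nearly all actives have a fitted effect of over 50% in size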
Summary of the method: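 Readout is phospho-S6 Alexa 488 signal normalized to PI per well, reported as % active cells with thresholds set from rapamycin (7.5 nM) and DMSO controls. Cells: Tsc2-/-, p53-/- MEFs, 24 hrs compound at 37 C; PI cell number serves as viability.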

Activity change, negative = inhibition, inactive:
COc1cccc(C(=O)Nc2cccc(NC(=O)c3ccc(Cl)cc3Cl)c2)c1 -3.69%
CCOc1ccc(CNC(=O)CCCn2nc(C)c3sc4ccccc4c3c2=O)cc1 4.95%
CCC(C)Nc1sc(S(=O)(=O)CC)nc1S(=O)(=O)c1ccc(C)cc1 (stereo not drawn) -8.79%
COC(=O)c1cc(S(=O)(=O)NCC2CCN(Cc3ccc(C)cc3)CC2)cn1C 2.81%
CCCOc1ccc(-c2nn(-c3ccccc3)cc2C2NC(=O)NC(C)=C2C(=O)OC)cc1 (stereo not drawn) -19.8%
CCc1ccc(C(=O)c2cn(CC(=O)Nc3cc(OC)ccc3OC)c3ccc(C)cc3c2=O)cc1 -0.813%
Cc1cccc(NS(=O)(=O)c2ccc3c(c2)[C@H]2C=CC[C@H]2[C@@H](c2ccc(F)cc2)N3)c1 -29.7%
Cc1ccc(C)c(NC(=O)Cn2c(=O)nc(-c3ccccc3)c3ccccc32)c1 6.05%
COc1ccc(C)cc1NC(=O)C1CCN(S(=O)(=O)c2ccc3c(c2)CCCN3C(C)=O)CC1 1.89%
O=C(Nc1ccc(N2CCN(c3ccc(F)cc3)CC2)c(C(=O)O)c1)c1ccccc1F 3.88%
CC1=C(C(=O)Nc2cccnc2)C(c2ccccc2)n2nc(SCc3ccccc3Cl)nc2N1 (stereo not drawn) -7.31%
Cc1ccc(CCNC(=O)Cn2ncc3c([nH]c4ccc(C)cc43)c2=O)cc1 -6.65%
CCOC(=O)c1ccc(NC(=O)CSc2nc3ccccc3c(=O)n2CCNC(C)=O)cc1 0.438%
CCc1ccc(NC(=O)CN2C(=O)C(c3ccc(F)cc3)=NC2(C)C)cc1 2.38%
CCCN(CCC)CCNC(=O)Cn1cc2c(n1)-c1c(oc(C(=O)N3CCCC3)c1C)CC2 -2.9%
COc1ccc(OC)c(NC(=O)CSc2cn(CC(=O)N3CCCCCC3)c3ccccc23)c1 -9.3%
O=C(CS(=O)(=O)c1cccc2nsnc12)Nc1ccc(F)cc1 -10.2%
COC(=O)c1cc(S(=O)(=O)NCC2CCN(Cc3ccc(F)cc3)CC2)c[nH]1 6.96%
COCCNC(=O)CSc1nc2cc3c(cc2c(=O)n1CCCC(=O)NCc1ccc(OC)cc1)OCO3 -5.42%
CCSc1ncc(Cl)c(C(=O)N(Cc2ccc(N(C)C)cc2)Cc2ccco2)n1 -1.85%
COCCNC(=O)c1ccc2c(c1)N(Cc1cc(C)ccc1C)C(=O)c1ccccc1S2(=O)=O 0.792%
Cc1ccc(NC(=O)CSc2nc3ccccc3nc2Cc2ccccc2)c(C)c1 0%
Cc1cc(NCc2ccccc2Cl)n2cnnc2n1 -17.5%
CCOc1ccc(Cn2c(-c3ccc(OCC)c(OC)c3)nc3ccccc32)cc1OC 6.35%
Cc1ccc(-c2nc(-c3cc4cccc(OCc5ccc(F)cc5)c4oc3=O)no2)cc1 -10.7%
Cc1ccc(CNC(=O)C2CCCCN2S(=O)(=O)c2ccc(F)cc2)cc1 (stereo not drawn) -6.2%
Cc1ccc(NC(=O)CSc2nc(-c3ccc(C(C)(C)C)cc3)nc3cc(=O)[nH]n23)cc1C -6.7%
COc1ccc(CNC(=O)C2CCN(S(=O)(=O)c3ccc(F)cc3)CC2)cc1 -10.4%
CSc1ncc(C(=O)Nc2cccc(C)c2C)c(-c2ccccc2)n1 0.0281%
COC(=O)c1ccc2c(c1)N(Cc1cc(C)ccc1C)C(=O)c1ccccc1S2 -1.73%
CCN1CCc2nc3sc(C(=O)c4ccccc4)c(N)c3cc2C1 -6.56%
CCN(c1ccccc1)S(=O)(=O)c1nnc(NC(=O)C(C)(C)C)s1 0.236%
CC(CNC(=O)c1ccc(CSc2nc3ccncc3n2Cc2ccc(F)cc2)cc1)c1ccccc1 (stereo not drawn) -5.19%
CCOc1ccc2nc(N3CCCC(C(=O)NCCCOC)C3)sc2c1 (stereo not drawn) -0.64%
Cc1nc2nc(NCc3cccc(Cl)c3)[nH]n2c(=O)c1Cc1ccccc1 3.72%
COC(=O)c1ccc(Cn2c(SCc3ccccc3F)nc3ccncc32)cc1 -5.75%
CCOc1ccc(CCNC(=O)Cn2c(=O)c3cccn3c3ccc(F)cc32)cc1OCC 5.45%
COc1ccc(-c2cc3ccc(O)c(CN4CCCC(C)C4)c3oc2=O)cc1 (stereo not drawn) 0%
COc1ccc(OCCn2c(C(C)Oc3ccccc3)nc3ccccc32)cc1 (stereo not drawn) -15.6%
CC1C(=O)Nc2ccc(S(=O)(=O)NCc3ccc(N(C)C)cc3)cc2NC1=O (stereo not drawn) -10.5%
Cc1ccc(Cl)cc1-n1ncc2c(NCc3ccc(F)cc3)ncnc21 -7.97%
COc1ccc(Cn2c(CCC(=O)Nc3ccc(C)c(C)c3)nc3cccnc32)cc1 1.39%
CCCN(CCC)C(=O)CN1C(=O)CSc2ccc(S(=O)(=O)N3CCC(C)CC3)cc21 0.325%
CC(=O)N1CCc2cc(S(=O)(=O)NC(CC(C)C)C(=O)NCCc3ccc(C)cc3)ccc21 (stereo not drawn) 0.218%
COc1cccc(C(=O)c2cn(CC(=O)Nc3cccc(C(F)(F)F)c3)c3nc(C)ccc3c2=O)c1 0%
CCN(CC)S(=O)(=O)c1ccc2c(c1)nc(CN(C)C(=O)Nc1cccc(Cl)c1)n2C 19.6%
CCS(=O)(=O)N1CC(=O)N(c2cc(C)ccc2C)C(C)(C(=O)NC2CCCCC2)C1 (stereo not drawn) 3.29%
Cc1ccc(Cl)cc1NC(=O)N1CCC2(CC1)Oc1ccccc1C(=O)N2Cc1ccccc1F -0.605%
COc1ccc(-n2nnc(-c3nsc(NC(=O)c4cccs4)n3)c2C)cc1OC 7.12%
Cc1cccc(NC(=O)C(=O)NCCc2sc(-c3ccccc3)nc2C)c1C -0.348%
Cc1c(Cl)cccc1NC(=O)C(CCS(C)(=O)=O)N1Cc2ccccc2C1=O (stereo not drawn) 0.645%
COc1ccc(-c2cn3c(n2)sc2cc(C(=O)NC4CCCCCC4)ccc23)cc1 -13.8%
Cc1ccc(S(=O)(=O)c2c(Nc3cc(C)ccc3C)sc(C(=O)c3ccc4c(c3)OCO4)c2N)cc1 0.35%
CC1CCCN(c2c(S(=O)(=O)c3ccccc3)cnc3ccc(Cl)cc23)C1 (stereo not drawn) -6.88%
CC(CNC(=O)c1cc(-c2ccccc2)n[nH]1)c1ccccc1 (stereo not drawn) -4.3%
Cc1cccc(N2CCN(C(=O)c3c(C)oc4ncnc(N5CCOCC5)c34)CC2)c1C -9.43%
Nc1cc(=O)nc(SCC(=O)Nc2ccc(F)cc2)n1-c1cccc(Cl)c1 -9.67%
COc1ccc(C)cc1NC(=O)c1cc(S(=O)(=O)N2CCC(C)CC2)cn1C 4.22%
COc1ccc(CCN2C(=O)N(c3ccc(C)cc3)C(=O)C2CC(=O)Nc2ccc(F)cc2)cc1 (stereo not drawn) -13.1%
Cc1nn(C(=O)COc2ccccc2Br)c(C)c1Sc1ccccc1 -9.96%
COc1ccc(CN2C(=O)N(c3ccc(F)cc3)C(=O)C2CC(=O)Nc2cc(OC)cc(OC)c2)cc1 (stereo not drawn) -9.05%
CCc1ccc(NC(=O)C(NS(=O)(=O)c2cccc3nsnc23)c2ccccc2)cc1 (stereo not drawn) -0.27%
COc1cccc(NC(=O)c2sc3nc(C)c(C(=O)Nc4ccc(Cl)cc4)c(-c4ccc(Br)cc4)c3c2N)c1 0%
O=C(CSc1n[nH]c(-c2ccccc2)n1)N1CCN(c2ccccc2F)CC1 0%
COc1ccc2c(CNCc3ccccc3OC)c(C(=O)O)n(Cc3ccc(F)cc3Cl)c2c1 -12.5%
CCc1ccc(NC(=O)C2CCC(CNS(=O)(=O)c3ccc4c(c3)C(C)(C)C(=O)N4C)CC2)cc1 (stereo not drawn) -0.0737%
Cc1cccc(NC(=O)c2sc3nc(-c4ccccc4)cn3c2C)c1C -4.14%
COc1ccc(-c2c3c(=O)n(C)c(=O)n(C)c3c3n2-c2ccccc2NC3c2ccc(O)cc2O)cc1 (stereo not drawn) -3.74%
COc1ccc2c(Sc3ccc(C)cc3)c(C(=O)NCCc3ccccc3)[nH]c2c1 -2.07%
COc1ccc(N(CC(=O)Nc2cccc(C(C)=O)c2)S(=O)(=O)c2ccccc2)c(OC)c1 3.46%
Cc1cc(OCCCn2c(CCNC(=O)C3CCCCC3)nc3ccccc32)ccc1Cl 1.4%
CCOc1ccc(C(=O)N(Cc2cc(OC)c(OC)c(OC)c2)c2ccccn2)cc1 -10%
OCc1cnc(SCc2ccc(F)cc2)n1Cc1ccc(F)cc1 -1.71%
O=C(CSc1nc(-c2cccs2)nc2cc(=O)[nH]n12)Nc1cccc(C(F)(F)F)c1 3.17%
O=C(Nc1nc2n(n1)C(c1ccc(Cl)cc1)C=C(c1ccccc1)N2)c1ccco1 (stereo not drawn) 0.625%
Cc1nn(C)c2c1c(C(F)(F)F)cc(=O)n2C(C)C(=O)NCCc1ccccc1 (stereo not drawn) -1.54%
COc1ccc(CCNC(c2ccc(F)cc2)c2nnc(-c3ccccc3Cl)o2)cc1OC (stereo not drawn) 0.623%
O=C(c1ccc(F)cc1)N1CCC(c2nc(-c3ccc(S(=O)(=O)N4CCCC4)cc3)no2)CC1 -5.03%
O=C(Cn1cnc2onc(-c3ccc(F)cc3)c2c1=O)Nc1ccc(F)c(Cl)c1 3.23%
O=C(CN1c2ccccc2S(=O)(=O)c2ccccc21)Nc1ccccc1Cl -1.22%
CCc1nn(CC(=O)NCCCN2CCN(CC)CC2)c(=O)c2cc3occc3n12 0.0403%
CCOc1ccc(S(=O)(=O)c2cn(Cc3ccccc3C)c3ccc(OC)cc3c2=O)cc1 -7.75%
CCCOc1ccc(-c2nonc2NC(=O)c2oc3ccc(Cl)cc3c2C)cc1OCCC -3.33%
O=C(c1ccc2c(c1)N(Cc1c(F)cccc1Cl)C(=O)c1ccccc1S2)N1CCOCC1 -0.063%
CCc1cccc(NC(=O)C2Cc3ccccc3N2C(=O)c2ccccc2)c1 (stereo not drawn) -12.9%
Cc1ccc2c(c1)c(CC(=O)Nc1ccc(C)c(F)c1)c(C(=O)O)n2C -2.89%
Cc1ccc2nc(COc3ccccc3NC(=O)c3ccccc3F)cc(=O)n2c1 0.295%
CCOc1cccc(C2c3[nH]c4ccccc4c3CCN2C(=O)CSCc2ccc(F)cc2)c1 (stereo not drawn) -13.5%
COc1ccc(OC)c(NC(=O)CSc2ncc3c(n2)-c2ccccc2N(C)S3(=O)=O)c1 0.311%
O=C(C1COc2ccccc2O1)N(Cc1cccnc1)c1nc2c(Cl)cccc2s1 (stereo not drawn) -1.68%
NC(=O)Cn1c(=O)n(CCCCCC(=O)NCc2ccc(F)cc2)c(=O)c2sccc21 -16.1%
CCCNC(=O)c1ccc(-c2nc(CS(=O)(=O)c3ccc(C)cc3)c(C)o2)cc1 -0.807%
CCCCS(=O)(=O)CC(O)CSc1nc(-c2ccc(C)cc2)cc(-c2ccccc2)c1C#N (stereo not drawn) 8.57%
